Compound in assay [1]: T1, CCCCN(CCCC)CC(O)c1cc(Cl)cc2c1-c1ccc(Cl)cc1/C2=C/c1ccc(Cl)cc1 [lumefantrine]
As to the kind of experiment: slope of the dose-response curve (dimensionless); higher = steeper concentration-effect curve. The method, then: (§1)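 Hypoxanthine uptake by fresh isolates, duplicate serial dilutions, 24 h of drug plus 18 h after the label; sigmoid fit per isolate.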

Compound in assay [2]: T2, OC(c1cc(C(F)(F)F)nc2c(C(F)(F)F)cccc12)C1CCCCN1 [mefloquine]
The assay is described as above. The method, then: as §1

Compound in assay [3]: T3, CCN(CC)CCCC(C)Nc1ccnc2cc(Cl)ccc12 [chloroquine]
Described as above. The method, then: as §1

Compound in assay [4]: T4, C[C@H]1[C@H](OC(=O)CCC(=O)O)O[C@@H]2O[C@@]3(C)CC[C@H]4[C@H](C)CC[C@@H]1[C@@]24OO3 [artesunate]
The description is as above. The method, then: as §1

Compound in assay [5]: T1, lumefantrine
The method, then:
as §1

Compound in assay [6]: T2, mefloquine
The method, then: as §1

Compound in assay [7]: T3, chloroquine
The method, then: as §1

Compound in assay [8]: T4, artesunate
The method, then:
as §1

Growth of fresh clinical P. falciparum isolates by hypoxanthine uptake over 42 h; for most isolates 1.6-1,647 nM mefloquine, 0.044-87 nM artesunate, 10-10,256 nM chloroquine, 2.4-236 nM lumefantrine. EC50, lower = more sensitive; slope from the same fit, higher = steeper. No active / inactive call. Fits with a coefficient of variation above 100% are not listed here; 15-28% of fits exceed 15%. Isolates are numbered anew.

In the case of “Plasmodium falciparum isolate 103 (pfmdr1 allele: 86N, 1042N, pfmdr1 copies: 2)”, the slope with lumefantrine [1] was 1.95; with mefloquine [2], 2.52; with chloroquine [3], 3.49; with artesunate [4], 6.27. Also, the “EC50 of parasite growth” value was 0.0127 µg/mL with lumefantrine [5], 0.0367 µg/mL in the assay with mefloquine [6], 0.149 µg/mL with chloroquine [7] and 0.000417 µg/mL with artesunate [8].

Turning to “Plasmodium falciparum isolate 353 (pfmdr1 allele: 86N, 1042N, pfmdr1 copies: 1)”, the slope in the assay with lumefantrine [1] came to 1.68; with mefloquine [2], 2.91; with chloroquine [3], 6.22; with artesunate [4], 5.33. Moreover, the “EC50 of parasite growth” value with lumefantrine [5] was determined as 0.0336 µg/mL; with mefloquine [6] it was 0.0257 µg/mL; in the assay with chloroquine [7] it was 0.224 µg/mL; with artesunate [8] it was 0.000367 µg/mL.

As to “Plasmodium falciparum isolate 184 (pfmdr1 allele: 86N, 1042N, pfmdr1 copies: 2)”, the slope with lumefantrine [1] turned out to be 2.56; with mefloquine [2], 5.46; with chloroquine [3], 5.65; in the assay with artesunate [4], 9.97. Moreover, the “EC50 of parasite growth” value was 0.0562 µg/mL with lumefantrine [5], 0.0786 µg/mL with mefloquine [6], 0.205 µg/mL with chloroquine [7] and 0.00133 µg/mL with artesunate [8].

For “Plasmodium falciparum isolate 219 (pfmdr1 allele: 86N, 1042N, pfmdr1 copies: 3)”, the slope with lumefantrine [1] is 1.94; with mefloquine [2], 4.44; in the assay with chloroquine [3], 3.74; in the assay with artesunate [4], 7.12. For the same test system, the “EC50 of parasite growth” value in the assay with lumefantrine [5] turned out to be 0.0165 µg/mL; with mefloquine [6], 0.0621 µg/mL; with chloroquine [7], 0.1 µg/mL; in the assay with artesunate [8], 0.000514 µg/mL.

Consider “Plasmodium falciparum isolate 361 (pfmdr1 allele: 86N, 1042N, pfmdr1 copies: 2)”, for which the slope was 1.75 with lumefantrine [1], 2.59 with mefloquine [2], 2.55 in the assay with chloroquine [3] and 7.63 with artesunate [4]. In addition, the “EC50 of parasite growth” value with lumefantrine [5] came to 0.0248 µg/mL; with mefloquine [6], 0.0733 µg/mL; with chloroquine [7], 0.0805 µg/mL; with artesunate [8], 0.000717 µg/mL.

For “Plasmodium falciparum isolate 41 (pfmdr1 allele: 86N, 1042N, pfmdr1 copies: 1)”, the slope came to 2.05 in the assay with lumefantrine [1], 1.66 with mefloquine [2], 2.79 in the assay with chloroquine [3] and 3.95 in the assay with artesunate [4]. In addition, the “EC50 of parasite growth” value in the assay with lumefantrine [5] worked out at 0.00353 µg/mL; in the assay with mefloquine [6] it was 0.0116 µg/mL; with chloroquine [7], 0.0792 µg/mL; with artesunate [8], 0.00026 µg/mL.

Consider “Plasmodium falciparum isolate 450 (pfmdr1 allele: 86N, 1042N, pfmdr1 copies: 1)”, for which the slope with lumefantrine [1] amounted to 3.01; with mefloquine [2] it was 3.39; with chloroquine [3], 5.12; in the assay with artesunate [4], 5.03. Further, the “EC50 of parasite growth” value with lumefantrine [5] worked out at 0.02 µg/mL; in the assay with mefloquine [6] it was 0.0279 µg/mL; with chloroquine [7], 0.121 µg/mL; with artesunate [8], 0.00194 µg/mL.

Take “Plasmodium falciparum isolate 317 (pfmdr1 allele: 86N, 1042N, pfmdr1 copies: 2)”: the slope was 2.9 with lumefantrine [1], 4.11 in the assay with mefloquine [2], 2 in the assay with chloroquine [3] and 10 with artesunate [4]. The “EC50 of parasite growth” value with lumefantrine [5] came to 0.0273 µg/mL; with mefloquine [6], 0.0522 µg/mL; in the assay with chloroquine [7], 0.0365 µg/mL; with artesunate [8] it was 0.00199 µg/mL.

As to “Plasmodium falciparum isolate 359 (pfmdr1 allele: 86N, 1042N, pfmdr1 copies: 2)”, the slope with lumefantrine [1] amounted to 2.03; with mefloquine [2], 3.13; in the assay with chloroquine [3], 4; with artesunate [4] it was 5.62. In addition, the “EC50 of parasite growth” value with lumefantrine [5] amounted to 0.0381 µg/mL; with mefloquine [6], 0.0914 µg/mL; with chloroquine [7], 0.255 µg/mL; in the assay with artesunate [8], 0.00333 µg/mL.

For “Plasmodium falciparum isolate 412 (pfmdr1 allele: 86N, 1042N, pfmdr1 copies: 2)”, the slope with lumefantrine [1] stood at 2.44; with mefloquine [2], 3.49; with chloroquine [3] it was 3.42; in the assay with artesunate [4] it was 5.73. Moreover, the “EC50 of parasite growth” value in the assay with lumefantrine [5] worked out at 0.0588 µg/mL; in the assay with mefloquine [6] it was 0.0915 µg/mL; with chloroquine [7], 0.104 µg/mL; with artesunate [8], 0.000838 µg/mL.

(Values after the supplement of paper PMC3722116.)
